# The full ranking holds about 110,000 compounds; the median of “z-score” is about -0.1, and the highest 2% start at about 2. This is one part of the list.
# Biological target: Metabotropic glutamate receptor 8 (Rattus norvegicus) (UniProt P70579)
# Test: rat mGluR8 modulators via GIRK flux, primary screen, cell-based, thallium flux, HTS (AID 488969)
# Conditions: HEK293 rat mGluR8, GIRK (G protein-gated inwardly rectifying potassium channel) thallium flux, FluoZin2; at 10 µM; stronger effect = higher value; submaximal glutamate (EC20) added with thallium
# Sequence of UniProt P70579 (P70579 whole entry, looked up): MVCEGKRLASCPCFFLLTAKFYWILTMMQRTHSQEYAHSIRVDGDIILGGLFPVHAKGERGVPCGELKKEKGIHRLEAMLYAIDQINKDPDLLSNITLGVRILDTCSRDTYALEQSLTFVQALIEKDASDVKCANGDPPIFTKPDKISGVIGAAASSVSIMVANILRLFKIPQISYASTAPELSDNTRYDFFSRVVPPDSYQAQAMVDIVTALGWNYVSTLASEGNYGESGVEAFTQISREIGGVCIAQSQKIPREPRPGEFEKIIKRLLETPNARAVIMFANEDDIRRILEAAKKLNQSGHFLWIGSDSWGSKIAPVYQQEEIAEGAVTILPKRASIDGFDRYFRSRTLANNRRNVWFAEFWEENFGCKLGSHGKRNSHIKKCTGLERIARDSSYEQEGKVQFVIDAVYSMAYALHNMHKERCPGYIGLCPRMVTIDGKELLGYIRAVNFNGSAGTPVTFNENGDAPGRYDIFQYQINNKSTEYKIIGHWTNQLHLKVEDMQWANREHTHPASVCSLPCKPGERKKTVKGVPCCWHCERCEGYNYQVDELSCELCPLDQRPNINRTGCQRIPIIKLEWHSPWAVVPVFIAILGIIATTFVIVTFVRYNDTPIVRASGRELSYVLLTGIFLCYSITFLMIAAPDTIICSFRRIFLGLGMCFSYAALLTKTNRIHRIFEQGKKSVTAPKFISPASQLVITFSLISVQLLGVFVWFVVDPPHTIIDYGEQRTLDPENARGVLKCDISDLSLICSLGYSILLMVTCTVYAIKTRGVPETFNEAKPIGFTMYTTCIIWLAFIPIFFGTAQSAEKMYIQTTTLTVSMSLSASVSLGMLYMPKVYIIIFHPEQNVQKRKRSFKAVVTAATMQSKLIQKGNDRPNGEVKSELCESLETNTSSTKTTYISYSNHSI
row,SMILES,z-score
1,CCCc1cc(=O)[nH]c(Nc2ccc(O)cc2)n1,-1.37
2,CCOC(=O)N1CCN(C(=O)CN(C2CCCCC2)S(=O)(=O)c2ccc(C)cc2)CC1,0.464
3,O=C(COC(=O)/C=C/c1nc2ccccc2s1)Nc1cccc(Cl)c1Cl,0.00537
4,COc1ccc([C@H]2[C@H](C(=O)C(C)(C)C)N3N=Cc4ccccc4C3[C@]23N=C(c2ccccc2)OC3=O)cc1 (some centres not stated),-0.129
5,Cc1ccc2cc3cc(C(=O)NCc4ccc5c(c4)OCO5)oc3nc2c1,-0.411
6,COc1ccccc1C1CC(c2ccc(Br)cc2)=NN1C(=O)c1cccnc1 (configuration not stated),-0.436
7,COC(=O)c1c(NS(C)(=O)=O)sc2c1CCCC2,0.0189
8,COc1cccc(Cn2cccc(NC(=O)Nc3ccc(C#N)cc3)c2=O)c1,-0.975
9,Cc1cc(C)c(C#N)c(SCc2[nH]nc3c2C(c2ccc(F)cc2)C(C#N)=C(N)O3)n1 (configuration not stated),-0.0705
10,Cc1c(CCC(C)C)c(-n2ccnc2C)n2c(nc3ccccc32)c1C#N,-0.329
11,CCOC(=O)c1c(N)sc2c1CCS(=O)(=O)C2,0.497
12,CCC(CC)c1nnc(NC(=O)c2ccc([N+](=O)[O-])cc2)s1,-0.0159
13,CCOC(=O)c1[nH]nc(N)c1NC(=O)c1ccc(Cl)cc1Cl,-0.368
14,CCOC(=O)CSc1ncc(OC)c(Sc2ccc(OC)cc2)n1,-0.366
15,Cc1cc(C)c(S(=O)(=O)c2ccccc2)c(Cl)n1,-0.000337
16,COc1cc(OC)c(C(=O)Nc2ncn[nH]2)cc1OC,0.964
17,COC(=O)c1nnn(-c2ccccc2)c1N,-0.148
18,COC(/C=C/Nc1ccc(Br)cc1)=C(C#N)C#N,-0.209
19,CCCC(=O)Nc1nnc(-c2ccc(Cl)s2)o1,0.159
20,CCOC(=O)c1c(NC(=O)c2nn(CC)cc2Br)c(C#N)nn1-c1ccccc1,0.664
21,CCOC(=O)c1cnc2c(N=Nc3ccccc3)c(N)nn2c1N,0.249
22,Cc1ccc(CNC(=O)/C(C#N)=C\c2ccc(N(C)C)cc2)cc1,0.253
23,O=S(=O)(c1cccc(-c2nnc(-c3cccnc3)o2)c1)N1CCCCC1,-0.241
24,COCCn1c(C(C)C)nc2oc3ccccc3c(=O)c2c1=O,-0.496

row,SMILES,z-score
1,CC(C)CCn1c(SCC(=O)c2ccccc2)nc2c1c(=O)[nH]c(=O)n2C,-1.14
2,COc1ccccc1N1CCN(C(c2ccc(N(C)C)cc2)c2nnnn2CCc2ccccc2)CC1 (configuration not stated),-0.138
3,O=C(O)C1CCN(C(=O)c2ccccc2Cl)CC1,-0.551
4,CCC(=O)Oc1c(-c2ccccc2)c2nc3ccccc3nc2c2ccccc12,-0.0624
5,CC12C=CC3(CN(Cc4ccccc4)C(=O)C3C1C(=O)NC1CC1)O2 (configuration not stated),-0.325
6,COC(=O)c1ccccc1NC(=O)C1CCCN(S(=O)(=O)c2ccc(OC)cc2)C1 (configuration not stated),-0.798
7,Cc1cnn(-c2ccc3nnc(-c4ccc(Cl)cc4)n3n2)c1,-1.29
8,O=[N+]([O-])c1ccc(Cl)c(S(=O)(=O)N2CCCCCC2)c1,-0.0418
9,CCNC(=O)C1CC(=O)N(Cc2ccc3c(c2)OCO3)C(=Nc2ccc(OCC)cc2)S1 (configuration not stated),-0.0594
10,Cc1ccccc1Nc1nnc(SCC(=O)NC(=O)Nc2ccc3c(c2)OCCO3)s1,-0.314
11,CCCCCCn1c(=O)c(F)cn(Cc2ccc(OC)c([N+](=O)[O-])c2)c1=O,-0.355
12,CN(C)c1cc(O)c(C(=S)Nc2ccccc2)c(N(C)C)c1,-1.36
13,COc1ccc(Br)cc1CN(C)CC(=O)Nc1cc(Cl)ccc1Cl,-0.25
14,Cc1cccc(N2CCN(C(=O)Cn3nc(Cc4ccncc4)c4ccccc4c3=O)CC2)c1C,-0.488
15,CN1CCN(C(=O)NC2CCCN2S(=O)(=O)c2ccc(Cl)cc2)CC1 (configuration not stated),-0.108
16,CCOc1ccc(-c2nc(CSCC(=O)N3CCN(c4cccc(OC)c4)CC3)c(C)o2)cc1,0.208
17,CC(Sc1ccc(Cl)cc1)C(=O)Nc1ccccc1-c1ccccc1 (configuration not stated),-0.262
18,Clc1cccc(/C=N/Nc2nc(Cl)nc3ccccc23)c1,-0.0962
19,O=C(Nc1cc(C(F)(F)F)ccc1Cl)C(NCc1ccccc1)c1ccccc1 (configuration not stated),0.13
20,O=C(/C=C/c1ccc(Br)cc1)c1ccco1,-0.0794
21,C=CCN1C(=O)CS/C1=C(\C#N)S(=O)(=O)c1ccc(C)cc1,0.0631
22,CCCCn1nnnc1SCC(=O)N(CC)CC,0.0106
23,CCOc1ccc(Nc2nc(Cc3nnc(SCC(=O)NC4CCCCC4)n3C)cs2)cc1,-0.301
24,COc1cc(OC)c(-c2nnc(-c3ccc(OC)c(OC)c3OC)o2)cc1OC,-0.705

row,SMILES,z-score
1,O=C(Nc1cnn(Cc2c(Cl)cccc2Cl)c1)C(c1ccccc1)c1ccccc1,-0.224
2,CN(C)C(=O)N1CCN(C(=O)c2ccccc2Sc2ccccc2C#N)CC1,0.305
3,Cc1cc(C(=O)COC(=O)c2csc3c2CCCC3)c(C)n1C,0.456
4,N#Cc1ccccc1Cn1cc(C#N)c2ccccc21,-0.163
5,COc1ccccc1Nc1nc(C2(C)CCC(=O)O2)cs1 (configuration not stated),0.011
6,CC(=O)Cc1nsc(NC(=O)c2ccc(-c3ccc(Cl)cc3Cl)o2)n1,-0.29
7,O=c1cc(NCc2ccco2)c2ccccc2o1,-0.304
8,CC(C)n1c(=O)[nH]c2ccccc21,1.11
9,CCOc1cc(C)nc(NCCc2ccc(OC)c(OC)c2)n1,-0.375
10,CCN(CC)S(=O)(=O)c1ccc(-c2nnc(SCC(=O)Nc3nc(C)cs3)o2)cc1,-0.361
11,COc1ccc(NC2C=CS(=O)(=O)C2)c(OC)c1 (configuration not stated),0.194
12,CCC/S(CC1CC1(Cl)Cl)=N\S(=O)(=O)c1ccc(C)cc1 (configuration not stated),0.367
13,O=C(O)CCCCCNC(=O)CCn1nnc2ccccc2c1=O,0.561
14,CCCC1Cc2c(sc3nc(SC)nc(N)c23)CO1 (configuration not stated),-0.341
15,O=C(O)CSCC(=O)Nc1ccccc1,0.00603
16,Cc1ccc(S(=O)(=O)NCC(=O)N2CCN(c3ccccn3)CC2)cc1,0.32
17,CCOc1ccc(OCC)c2sc(C)nc12,-0.6
18,CCC(=O)N1CN(S(=O)(=O)c2ccc(C)cc2)CC1C (configuration not stated),-0.446
19,Cn1c(CC(=O)Nc2ccccc2)c(Sc2ccccc2)c2ccccc21,-0.106
20,CCOc1ccc(-c2nc(-c3cccnc3)no2)cc1,0.878
21,Cc1cc2nc(C3CCCN(C(=S)Nc4ccccc4)C3)[nH]c2cc1C (configuration not stated),-0.0603
22,O=C(NCCc1ccccc1)c1cccnc1,-0.0437
23,COc1ccccc1CO/N=C/c1cccn1-c1nccc(N(C)C)c1C#N,-0.175
24,COc1ccc(/C(C)=N/NC(=O)c2ccc(CSc3cccc4cccnc34)cc2)cc1OC,-0.51
